Source: PubChem BioAssay AID686978 (National Center for Advancing Translational Sciences (NCATS), 2013)
Where “and” joins values, the source holds several entries; their conditions need not be identical. Equal values may be shown once. About 64,000 (15%) of roughly 420,000 compounds were called active. This list was built around the results that the source calls inconclusive (neither active nor inactive); the mix of calls is not that of the screen. Calls come from the whole dose curve; as a rule, active = well fitted inhibition curve with a large enough effect; inconclusive = small, poorly fitted or top-dose-only effect; inactive = flat fitted curve, though single readings scatter. Potencies of inconclusive entries are doubtful fits and often do not repeat.

Test: qHTS for Inhibitors of human tyrosyl-DNA phosphodiesterase 1 (TDP1): qHTS in cells in absence of CPT; note: nearly all actives have a fitted effect of over 55% in size
Details: DT40 Tdp1-/- hTDP1 cells, no CPT, ATP luminescence, 48 h; activity change, negative = growth inhibition: at 46.2 µM (top of the series) unless noted
Excerpt: Human tyrosyl-DNA phosphodiesterase 1 (TDP1) is a novel repair gene, and we propose to use it as a new target for anticancer drug development. TDP1 is not an essential protein, but under treatment with topoisomerase I poison (camptothecin: CPT), TDP1 works as a critical factor for cell survival. To directly identify novel TDP1 inhibitors active in a cellular environment, we have knocked-out the Tdp1 gene in chicken DT40 cells (Tdp1-/-) and generated a complemented counterpart cells that contains a stable transfection of the human TDP1 gene (Tdp1-/-;hTDP1 cells). For the primary screen, Tdp1-/-;hTDP1 cells will be exposed to small molecules in the presence or absence of CPT, and their growth kinetics will be evaluated after 48 hours by measuring ATP activity. […] The hit compounds will then be evaluated in the presence or absence of CPT using Tdp1-/- cells. […] In tertiary assays, biochemical gel-based assays will be used to assess whether the hit compounds specifically target TDP1.
To this end, we have screened this cell line against the MLSMR in two primary screens. In one screen we add CPT and in the other we screen in the absence of CPT; this AID represents the screen where CPT was absent.
NIH Chemical Genomics Center [NCGC]
NIH Molecular Libraries Probe Centers Network [MLPCN]
Assay Submitter (PI): Yves Pommier, NCI
DT40-hTDP1 cells without 20 nM Camptothecin (add 20 microL of DMSO in 1 L of cell culture medium) were dispensed at 400 cells/5microL/well in tissue culture treated 1536-well white wall/solid bottom assay plates (Greiner Bio-One North America, NC, U.S.A.) using a Multidrop Combi 8 channel dispenser (Thermo Fisher, Waltham, MA, USA). 23 nL compounds and controls were transferred using the pin tool (Kalypsys, San Diego, CA, USA) to the assay plates. The assay plates were then incubated at 37 masculineC for a minimum 48 hr. Three microL of Cell Titer Glo solution was added to the plates and incubated at RT in dark for 30 min. Luminescence was read using ViewLux (Perkin Elmer) with 1 sec exposure slow speed, high gain and 2x binning.
% is set by controls: 0 for no effect and ±100 for the full control effect; potency is the fitted concentration of half-maximal effect; tags give direction and shape of the fitted curve.

Row | Structure (SMILES) | Potency | activity change, negative = growth inhibition
1 | COc1ccccc1N(C)S(=O)(=O)c1ccc(Cl)c(C(=O)NCc2cccnc2)c1 | inconclusive: 18.4 µM [inhibitor, single point] | –
2 | CCOc1c(C)cnc2c1c(=O)n(Cc1cccc(Cl)c1)c(=O)n2C | inconclusive: 20.6 µM [inhibitor, single point] | –
3 | O=C(NC(=S)Nc1ccc(CN2CCOCC2)cc1)c1ccc2c(c1)OCCO2 | active: 14.6 µM | –
4 | O=c1cc(-c2ccc3c(c2)OCCO3)oc2ccc(Cl)cc12 | inconclusive: 11.6 µM [inhibitor, partial curve] | –
5 | CC(NC(=O)c1cc2c(=O)n3ccccc3nc2n(C(C)C)c1=N)c1ccccc1 (stereo not drawn) | active: 18.4 µM | –
6 | O=C(Nc1ccc(NC(=O)c2ccccn2)cc1)C(=O)Nc1ccc2c(c1)OCCO2 | – | inactive: -0.376%
7 | CCCOC(=O)C1C2C=CC(C2)C1C(=O)OCC(=O)c1ccccc1 (stereo not drawn) | – | inconclusive: -32.2% [inhibitor]
8 | Cc1cc(C)cc(N2Cc3ccccc3C2)c1 | – | inactive: -4.69%
9 | COc1cc(NC(=O)CN2C(=O)CCc3cc(Br)ccc32)cc(OC)c1OC | inconclusive: 14.6 µM [inhibitor, partial curve, poor fit] | –
10 | O=S(=O)(Nc1ccc2c3c(cccc13)CC2)c1ccccc1 | active: 13 µM | –
11 | CC(C)(C)NCCOCCOc1ccccc1-c1ccccc1 | inconclusive: 29.1 µM [inhibitor, single point] | –
12 | COc1ccc(CNC(=O)c2noc3c2CCCCC3)cc1 | inconclusive: 32.6 µM [inhibitor, partial curve] | –
13 | Cc1ccc(CCNS(=O)(=O)c2ccc3c(c2)C(C(C)C)C(=O)N3)cc1 (stereo not drawn) | active: 20.6 µM | –
14 | O=C(N1CCN(c2ncccn2)CC1)C12CC3CC(CC(C3)C1)C2 | – | inactive: -29.1%
15 | Cc1ccc([C@@H]2[C@@H]3C(=O)N(C)C(=O)[C@@H]3[C@]3(Cc4ccccc4)C(=O)N(Cc4ccccn4)CC(=O)N23)o1 | – | inactive: 3.06%
16 | CCOC(=O)c1nnn(-c2nonc2N)c1CNc1ccccc1 | inconclusive: 23.1 µM [inhibitor, partial curve, poor fit] | –
17 | Cc1cc(=O)oc(C)c1C(=O)Nc1cnc2ccccc2c1 | – | inactive: -21.1%
18 | CC(CCc1ccccc1)NC(=O)C(=O)c1c[nH]c2ccccc12 (stereo not drawn) | inconclusive: 14.6 µM [inhibitor, partial curve] | –
19 | CCC(C)Sc1cc(-c2nc3cc(C)ccn3c2NC2CCCCC2)ccc1OC (stereo not drawn) | active: 16.4 µM and active: 20.6 µM | –
20 | Cc1ccc(S(=O)(=O)N(C)C)cc1NC(=O)COC(=O)/C=C/c1cccs1 | – | inactive: -17.8%
21 | O=C(NCc1ccccc1)NCC12CC3CC(CC(C3)C1)C2 | inconclusive: 16.4 µM [inhibitor, partial curve] | –
22 | Cc1cn(C)c(CC(=O)NCc2ccc(Cl)cc2)c1C(=O)O | – | inactive: 10.2%
23 | Cc1c(Cl)cccc1NC(=S)N=Nc1c(O)n(CN2CCOCC2)c2ccccc12 | active: 1.46 µM | –
24 | COc1cccc(Cn2c(=O)n(CC3CCC(C(=O)NC(C)C)CC3)c(=O)c3sccc32)c1 (stereo not drawn) | – | inactive: 3.4%
25 | COc1ccc(N2C(=O)CC(NCCNc3ccc([N+](=O)[O-])cn3)C2=O)cc1 (stereo not drawn) | – | inactive: 2.17%

Row | Structure (SMILES) | Potency | activity change, negative = growth inhibition
26 | Clc1cc(Cl)cc(CSc2nnc(-c3sccc3-n3cccc3)o2)c1 | inconclusive: 10.3 µM [inhibitor, partial curve] | –
27 | COc1ccccc1CCN1CCCC(CN(C)C(=O)CCC(N)=O)C1 (stereo not drawn) | – | inactive: 13.5%
28 | O=C1CC(c2ccccc2)C(=O)N2C(=O)CC(c3ccccc3)C(=O)N12 (stereo not drawn) | – | inactive: -3.36%
29 | COc1nc(NCCN2CCOCC2)nc(Nc2ccc([N+](=O)[O-])cc2)n1 | inconclusive: 16.4 µM [inhibitor, partial curve] | –
30 | O=C(Cc1csc2ccccc12)NCC1CC1 | – | inactive: -7.36%
31 | CC1=CC(=O)C(C(C)C)=C/C1=N/OS(=O)(=O)c1ccccc1 | active: 0.58 µM | –
32 | O=[N+]([O-])c1cc(/C=N/Nc2nc(N3CCCCC3)nc(N3CCCCC3)n2)ccc1O | inconclusive: 20.6 µM [inhibitor, single point] | –
33 | CSc1ccc(/C=C/C(=O)OCC(=O)NC2CCS(=O)(=O)C2)cc1 (stereo not drawn) | inconclusive: 8.2 µM [inhibitor, single point] | –
34 | CCCC1(CCC)NC(=O)N(CC(=O)Nc2ccccc2OC)C1=O | – | inconclusive: -31.9% [inhibitor]
35 | O=C1COc2ccc(C(=O)NCc3ccc4c(c3)OCO4)cc2N1 | inconclusive: 20.6 µM [inhibitor, partial curve] | –
36 | O=C(c1cccc(F)c1)N1CCCC(C(=O)N2CCCCC2)C1 (stereo not drawn) | – | inactive: -12%
37 | CCCCc1ccc(NC(=S)NCc2ccc(OC)cc2)cc1 | active: 18.4 µM | –
38 | O=C1CSC(c2cccc(F)c2)N1c1ccccc1 (stereo not drawn) | inconclusive: 8.2 µM [inhibitor, partial curve, poor fit] | –
39 | O=C(CC1NC(=O)NC1=O)Nc1ccccc1 (stereo not drawn) | – | inactive: 9.83%
40 | CC[C@]12c3[nH]c4cc(-c5ccco5)ccc4c3CCN1C(=O)[C@@H](CC(=O)NC/C=C(\C)CCC=C(C)C)C[C@@H]2C(=O)N1CCN(C(=O)c2ccco2)CC1 | active: 20.6 µM | –
41 | Cc1cc(C)c2c(c1)c1nnc(SCCN3CCCCC3)nc1n2C | active: 20.6 µM | –
42 | Cn1ncc(SCc2ccccc2)c(Cl)c1=O | active: 10.3 µM | –
43 | CCOC(=O)c1sc(NC(=O)CSc2nnnn2-c2ccc(C)c(C)c2)nc1C | inconclusive: 29.1 µM [inhibitor, single point] | –
44 | CCOCCn1c(SCc2cccc(C)c2)nc2c1c(=O)[nH]c(=O)n2C | inconclusive: 29.1 µM [inhibitor, single point] | –
45 | Cc1noc(C)c1S(=O)(=O)N(C)C[C@H]1Oc2ccc(NC(=O)C3CCCCC3)cc2C(=O)N([C@H](C)CO)C[C@@H]1C | – | inactive: -13.7%
46 | Cc1ccc(CN(C)C(=O)COC(=O)CSc2ccc([N+](=O)[O-])cc2)cc1 | active: 16.4 µM | –
47 | C=CC[C@@H](CC(=O)N[C@@H](CO)Cc1ccccc1)C(=O)NC[C@@H](OC(=O)[C@@H](CC=C)CC(=O)OC(C)(C)C)c1ccccc1 | inconclusive: 14.6 µM [inhibitor, partial curve] | –
48 | COc1ccccc1NC(=O)CC(C)n1nc(C)cc1C (stereo not drawn) | – | inactive: -20.8%
49 | O=C(c1cnc(Cl)c(Cl)c1)N1CCC(Cc2ccccc2)CC1 | inconclusive: 29.1 µM [inhibitor, single point] | –
50 | O=C(NCc1ccco1)c1ccccc1Nc1ccc(F)cc1 | inconclusive: 16.4 µM [inhibitor, partial curve] | –

Row | Structure (SMILES) | Potency | activity change, negative = growth inhibition
51 | O=C(NCc1cccc(Cl)c1)c1cccc(S(=O)(=O)N2CCCC2)c1 | – | inactive: -19.7%
52 | O=C(NC1CCCCCC1)c1cc2ccccc2oc1=O | – | inconclusive: -31.1% [inhibitor]
53 | Cc1ccccc1-c1oc(C)c(C)[n+]1[O-] | – | inactive: 5.99%
54 | Cc1ccc(OCc2cc(C(=O)NCc3cnn(-c4cccc(F)c4)c3)no2)cn1 | inconclusive: 4.11 µM [inhibitor, single point] | –
55 | Cc1ccc2c(=O)c(C(=O)c3cccc(Cl)c3)cn(CC(=O)NC3CCCCC3)c2n1 | – | inactive: -6.11%
56 | O=C(NCc1nc2ccccc2[nH]1)C1=C[C@@H](c2ccc(Br)cc2)C[C@@H](OCc2ccc(CO)cc2)O1 | active: 18.4 µM | –
57 | CCN(CC)c1ccc(N=Cc2ccc(N(CC)CC)cc2O)cc1 | inconclusive: 29.1 µM [inhibitor, single point] | –
58 | Cc1nc(SCC(=O)N(C)Cc2ccco2)c2c(C)c(C)sc2n1 | inconclusive: 23.1 µM [inhibitor, single point] | –
59 | CCOC(=O)c1ccc(NC(=O)CSc2nc3c(c(=O)[nH]2)CN(Cc2ccccc2)CC3)cc1 | inconclusive: 23.1 µM [inhibitor, single point] | –
60 | COc1ccc(NC(=S)N(Cc2cccnc2)Cc2cc3cc(OC)c(OC)cc3[nH]c2=O)cc1 | inconclusive: 20.6 µM [inhibitor, single point] | –
61 | CCNCC(=O)N1c2ccccc2CCc2ccc(NC(=O)OCC)cc21 | inconclusive: 29.1 µM [inhibitor, single point] | –
62 | COc1ccc(-n2nc3c(N4CCC(C(=O)NCc5ccccc5C)CC4)nnc(C)c3c2C)cc1 | active: 7.31 µM | –
63 | CCC(=O)N1CCc2cc(S(=O)(=O)NCCC(=O)NC3CCCCCC3)ccc21 | – | inactive: -26.1%
64 | Cc1cc2ncc(-c3ccccc3)nc2cc1C | inconclusive: 6.51 µM [inhibitor, partial curve, poor fit] | –
65 | Cc1ccc(/C=C2\SC(=S)N(CCC(=O)NNC(=O)c3cccnc3)C2=O)cc1 | active: 9.2 µM | –
66 | CCCn1c(N)c(N(CCOC)C(=O)CSCC(=O)Nc2ccc(C)cc2)c(=O)[nH]c1=O | – | inactive: 0.052%
67 | Cc1ccc(N(CC(=O)N2CCN(c3ccc(F)cc3)CC2)S(=O)(=O)c2c(C)noc2C)cc1 | inconclusive: 29.1 µM [inhibitor, single point] and inconclusive: 18.4 µM [inhibitor, single point] | –
68 | COc1ccc(/C=C/C(=O)Nc2ccc(C34CC5CC(CC(O)(C5)C3)C4)cc2)cc1OC | active: 1.3 µM | –
69 | CN(CC(=O)Nc1ccc(C#N)cc1)Cc1ccc(Cl)cc1 | inconclusive: 20.6 µM [inhibitor, single point] | –
70 | CC1=CC2=NC(=O)/C(=C\c3cc(C)n(-c4ccc(F)cc4)c3C)C(=N)N2O1 | inconclusive: 6.51 µM [inhibitor, single point] | –
71 | CC(C)(C)C(=O)NCCc1nc2ccccc2n1CCCCOc1ccccc1 | active: 16.4 µM | –
72 | O=C(CSc1nc2ccccc2c(=O)n1CCCN1CCOCC1)Nc1ccccc1OC(F)F | active: 20.6 µM | –
73 | CCOC(=O)[C@H]1[C@H]2COc3ccccc3[C@@H]2N2C(=O)c3ccc(C)cc3NC(=O)[C@@]12C | inconclusive: 18.4 µM [inhibitor, partial curve] | –
